# Some of the results follow.
# B1: MAL-II (Maackia amurensis), P93248 (protein)
# chain: ATSNSKPTQVLLATFLTFFFLLLNNVNSSDELSFTINNFVPNEADLLFQGEASVSSTGVLQLTRVENGQPQQYSVGRALYAAPVRIWDNTTGSVASFSTSFTFVVKAPNPTITSDGLAFFLAPPDSQIPSGRVSKYLGLFNNSNSDSSNQIVAVEFDTYFGHSYDPWDPNYRHIGIDVNGIESIKTVQWDWINGGVAFATITYLAPNKTLIASLVYPSNQTSFIVAASVDLKEILPEWVRVGFSAATGYPTQVETHDVLSWSFTSTLEANSDAATENNVHIARYTA
# What was measured:
# Assay in all cases: glycan array binding signal (z-score within array); higher = stronger binding
# Settings in all cases: glycan notation: IUPAC condensed, linker removed
# [1] = biological target: Gal(a1-3)Gal(b1-4)GlcNAc(b1-2)Man
# Procedure, shortened: (§1)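 From the Consortium for Functional Glycomics database, 3228 arrays were curated, keeping only those whose protein sequence was available. Binding is given as a within-array Z-score averaged across arrays sharing a protein sequence and across linkers. Negative Z-scores can be read as non-binding.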
# [2] = biological target: Gal(a1-3)Gal(b1-4)GlcNAc(b1-2)Man(a1-3)[Gal(a1-3)Gal(b1-4)GlcNAc(b1-2)Man(a1-6)]Man(b1-4)GlcNAc(b1-4)GlcNAc
# Procedure, shortened: as §1
# [3] = biological target: Gal(a1-3)Gal(b1-4)GlcNAc(b1-3)GalNAc
# Procedure, shortened: as §1
# [4] = biological target: Gal(a1-3)Gal(b1-4)GlcNAc(b1-6)GalNAc
# Procedure, shortened: as §1
# [5] = biological target: Gal(a1-3)Gal(b1-4)[Fuc(a1-3)]GlcNAc
# Procedure, shortened: as §1
# [6] = biological target: Gal(a1-3)Gal(b1-4)[Fuc(a1-3)]GlcNAc(b1-2)Man(a1-3)[Gal(a1-3)Gal(b1-4)[Fuc(a1-3)]GlcNAc(b1-2)Man(a1-6)]Man(b1-4)GlcNAc(b1-4)GlcNAc
# Procedure, shortened: as §1
# [7] = biological target: Gal(a1-3)GalNAc
# Procedure, shortened: as §1
# [8] = biological target: Gal(a1-3)[Gal(a1-4)]Gal(b1-4)GlcNAc
# Procedure, shortened: as §1
# [9] = biological target: Gal(a1-4)Gal(b1-3)GlcNAc(b1-2)Man(a1-3)[Gal(a1-4)Gal(b1-3)GlcNAc(b1-2)Man(a1-6)]Man(b1-4)GlcNAc(b1-4)GlcNAc
# Procedure, shortened: as §1
# [10] = biological target: Gal(a1-4)Gal(b1-4)Glc
# Procedure, shortened: as §1
# [11] = biological target: Gal(a1-4)Gal(b1-4)GlcNAc
# Procedure, shortened: as §1
# [12] = biological target: Gal(a1-4)Gal(b1-4)GlcNAc(b1-2)Man(a1-3)[Gal(a1-4)Gal(b1-4)GlcNAc(b1-2)Man(a1-6)]Man(b1-4)GlcNAc(b1-4)GlcNAc
# Procedure, shortened: as §1
# [13] = biological target: Gal(a1-4)Gal(b1-4)GlcNAc(b1-3)Gal(b1-4)Glc
# Procedure, shortened: as §1
# [14] = biological target: Gal(a1-4)GlcNAc
# Procedure, shortened: as §1
# [15] = biological target: Gal(a1-6)Glc
# Procedure, shortened: as §1
# [16] = biological target: Gal(b1-2)Gal
# Procedure, shortened: as §1
# [17] = biological target: Gal(b1-3)Gal
# Procedure, shortened: as §1
# [18] = biological target: Gal(b1-3)Gal(b1-4)GlcNAc
# Procedure, shortened: as §1
# [19] = biological target: Gal(b1-3)Gal(b1-4)GlcNAc(b1-2)Man(a1-3)[Gal(b1-3)Gal(b1-4)GlcNAc(b1-2)Man(a1-6)]Man(b1-4)GlcNAc(b1-4)GlcNAc
# Procedure, shortened: as §1
# [20] = biological target: Gal(b1-3)GalNAc
# Procedure, shortened: as §1
# [21] = biological target: Gal(b1-3)GalNAc(a1-3)[Fuc(a1-2)]Gal(b1-4)Glc
# Procedure, shortened: as §1
# [22] = biological target: Gal(b1-3)GalNAc(a1-3)[Fuc(a1-2)]Gal(b1-4)GlcNAc
# Procedure, shortened: as §1
# [23] = biological target: Gal(b1-3)GalNAc(b1-3)Gal
# Procedure, shortened: as §1
# [24] = biological target: Gal(b1-3)GalNAc(b1-3)Gal(a1-4)Gal(b1-4)Glc
# Procedure, shortened: as §1
# [25] = biological target: Gal(b1-3)GalNAc(b1-4)Gal(b1-4)Glc
# Procedure, shortened: as §1
# [26] = biological target: Gal(b1-3)GalNAc(b1-4)[Neu5Ac(a2-3)]Gal(b1-4)Glc
# Procedure, shortened: as §1
# [27] = biological target: Gal(b1-3)GlcNAc
# Procedure, shortened: as §1
# [28] = biological target: Gal(b1-3)GlcNAc(a1-3)Gal(b1-4)GlcNAc
# Procedure, shortened: as §1
# [29] = biological target: Gal(b1-3)GlcNAc(a1-6)Gal(b1-4)GlcNAc
# Procedure, shortened: as §1
# [30] = biological target: Gal(b1-3)GlcNAc(b1-2)Man
# Procedure, shortened: as §1
# [31] = biological target: Gal(b1-3)GlcNAc(b1-2)Man(a1-3)[Gal(b1-3)GlcNAc(b1-2)Man(a1-6)]Man(b1-4)GlcNAc(b1-4)GlcNAc
# Procedure, shortened: as §1
# [32] = biological target: Gal(b1-3)GlcNAc(b1-2)Man(a1-3)[Gal(b1-3)GlcNAc(b1-2)Man(a1-6)]Man(b1-4)GlcNAc(b1-4)[Fuc(a1-6)]GlcNAc
# Procedure, shortened: as §1
# [33] = biological target: Gal(b1-3)GlcNAc(b1-2)Man(a1-3)[GlcNAc(b1-4)][Gal(b1-3)GlcNAc(b1-2)Man(a1-6)]Man(b1-4)GlcNAc(b1-4)GlcNAc
# Procedure, shortened: as §1
# [34] = biological target: Gal(b1-3)GlcNAc(b1-2)[Gal(b1-3)GlcNAc(b1-6)]Man(a1-6)[Gal(b1-3)GlcNAc(b1-2)Man(a1-3)]Man(b1-4)GlcNAc(b1-4)GlcNAc
# Procedure, shortened: as §1
# [35] = biological target: Gal(b1-3)GlcNAc(b1-3)Gal(b1-3)GlcNAc
# Procedure, shortened: as §1
# [36] = biological target: Gal(b1-3)GlcNAc(b1-3)Gal(b1-4)Glc
# Procedure, shortened: as §1
# [37] = biological target: Gal(b1-3)GlcNAc(b1-3)Gal(b1-4)GlcNAc
# Procedure, shortened: as §1
# [38] = biological target: Gal(b1-3)GlcNAc(b1-3)Gal(b1-4)GlcNAc(b1-2)Man(a1-3)[Gal(b1-3)GlcNAc(b1-3)Gal(b1-4)GlcNAc(b1-2)Man(a1-6)]Man(b1-4)GlcNAc(b1-4)GlcNAc
# Procedure, shortened: as §1
binder,measurement,setting,value
B1,glycan array binding signal (z-score),[1],-0.188
same,glycan array binding signal (z-score),[2],0.244
same,glycan array binding signal (z-score),[3],-0.181
same,glycan array binding signal (z-score),[4],-0.211
same,glycan array binding signal (z-score),[5],-0.193
same,glycan array binding signal (z-score),[6],-0.169
same,glycan array binding signal (z-score),[7],-0.218
same,glycan array binding signal (z-score),[8],-0.252
same,glycan array binding signal (z-score),[9],-0.08
same,glycan array binding signal (z-score),[10],-0.133
same,glycan array binding signal (z-score),[11],-0.185
same,glycan array binding signal (z-score),[12],0.023
same,glycan array binding signal (z-score),[13],-0.187
same,glycan array binding signal (z-score),[14],-0.208
same,glycan array binding signal (z-score),[15],-0.221
same,glycan array binding signal (z-score),[16],-0.225
same,glycan array binding signal (z-score),[17],-0.196
same,glycan array binding signal (z-score),[18],-0.1
same,glycan array binding signal (z-score),[19],-0.222
same,glycan array binding signal (z-score),[20],-0.176
same,glycan array binding signal (z-score),[21],-0.212
same,glycan array binding signal (z-score),[22],-0.239
same,glycan array binding signal (z-score),[23],-0.198
same,glycan array binding signal (z-score),[24],-0.154
same,glycan array binding signal (z-score),[25],-0.143
same,glycan array binding signal (z-score),[26],-0.2
same,glycan array binding signal (z-score),[27],-0.213
same,glycan array binding signal (z-score),[28],-0.364
same,glycan array binding signal (z-score),[29],-0.194
same,glycan array binding signal (z-score),[30],-0.189
same,glycan array binding signal (z-score),[31],-0.182
same,glycan array binding signal (z-score),[32],-0.093
same,glycan array binding signal (z-score),[33],-0.169
same,glycan array binding signal (z-score),[34],0.046
same,glycan array binding signal (z-score),[35],-0.172
same,glycan array binding signal (z-score),[36],-0.239
same,glycan array binding signal (z-score),[37],-0.203
same,glycan array binding signal (z-score),[38],-0.177
